According to the supplement of paper PMC4967469:

These cell lines were tested with C=CC(=O)Nc1cccc(Nc2nc(NC3CCC(N(C)C)CC3)nc3c2ncn3C(C)C)c1 [WZ3105] (assay: Viability of human cancer cell lines after 72 h of drug (GDSC screen)). Conditions: top dose inferred.
Experimental: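 Human cancer cell lines in 384-well plates, medium with 10% serum, drug for 72 h over a 256-fold dose range (nine 2-fold or five 4-fold steps up to the top dose). Adherent lines were fixed and stained with the nucleic acid dye Syto60, suspension lines read with resazurin; signal relative to control wells, capped at 0 and 100%. One two-parameter sigmoid per drug and line, fitted in a mixed model over all curves with the slope shared within a line.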
In the case of “KELLY (neuroblastoma, adherent, top dose 1.28 µM)”, the AUC is reported as 0.987 and the IC50 is reported as > 1280 nM.
In the case of “KG-1 (acute myeloid leukaemia, suspension, top dose 1.28 µM)”, the AUC is reported as 0.97 and the IC50 is reported as > 1280 nM.
KGN (ovary, adherent, top dose 1.28 µM) was tested, and the AUC was 0.914 and the IC50 was > 1280 nM.
With “KINGS-1 (glioma, adherent, top dose 1.28 µM)” the AUC was 0.917 and the IC50 was > 1280 nM.
In the case of “KLE (endometrium, adherent, top dose 1.28 µM)”, the AUC is reported as 0.871 and the IC50 is reported as > 1280 nM.
Cell Line “KM12 (large intestine, adherent, top dose 10.24 µM)” has an AUC of 0.698 and an IC50 of 2430 nM.
“KM-H2 (Hodgkin lymphoma, suspension, top dose 1.28 µM)” was tested, and the AUC was 0.903 and the IC50 was 1240 nM.
Cell Line “KMH-2 (thyroid, adherent, top dose 1.28 µM)” has an AUC of 0.769 and an IC50 of 432 nM.
For “KMOE-2 (acute myeloid leukaemia, suspension, top dose 1.28 µM)”, the AUC was 0.736 and the IC50 was 344 nM.
“KMRC-1 (kidney, adherent, top dose 1.28 µM)” was tested, and the AUC was 0.983 and the IC50 was > 1280 nM.
With “KMRC-20 (kidney, adherent, top dose 1.28 µM)” the AUC was 0.985 and the IC50 was > 1280 nM.
In the case of “KMS-11 (myeloma, suspension, top dose 1.28 µM)”, the AUC is reported as 0.878 and the IC50 is reported as 979 nM.
Cell Line “KMS-12-BM (myeloma, suspension, top dose 1.28 µM)” has an AUC of 0.589 and an IC50 of 134 nM.
For “KNS-42 (glioma, adherent, top dose 1.28 µM)”, the AUC was 0.952 and the IC50 was > 1280 nM.
For “KNS-81-FD (glioma, adherent, top dose 1.28 µM)”, the AUC was 0.91 and the IC50 was > 1280 nM.
For “KON (head and neck, adherent, top dose 1.28 µM)”, the AUC was 0.978 and the IC50 was > 1280 nM.
“KOPN-8 (B-cell leukaemia, suspension, top dose 1.28 µM)” gave an AUC of 0.623 and an IC50 of 165 nM.
For “KOSC-2 (head and neck, adherent, top dose 1.28 µM)”, the AUC was 0.816 and the IC50 was 752 nM.
“KP-2 (pancreas, adherent, top dose 1.28 µM)” gave an AUC of 0.681 and an IC50 of 268 nM.
“KP-3 (pancreas, adherent, top dose 1.28 µM)” was tested, and the AUC was 0.901 and the IC50 was > 1280 nM.
“KP-4 (pancreas, adherent, top dose 1.28 µM)” gave an AUC of 0.765 and an IC50 of 449 nM.
In the case of “KP-N-YN (neuroblastoma, adherent, top dose 1.28 µM)”, the AUC is reported as 0.911 and the IC50 is reported as > 1280 nM.
Work on “KP-N-YS (neuroblastoma, adherent, top dose 1.28 µM)” yielded an AUC of 0.782 and an IC50 of 620 nM.
With “KS-1 (glioma, adherent, top dose 1.28 µM)” the AUC was 0.601 and the IC50 was 163 nM.
“KU812 (chronic myeloid leukaemia, suspension, top dose 1.28 µM)” gave an AUC of 0.574 and an IC50 of 125 nM.
“KU-19-19 (bladder, adherent, top dose 1.28 µM)” was tested, and the AUC was 0.815 and the IC50 was 704 nM.
“KURAMOCHI (ovary, adherent, top dose 1.28 µM)” was tested, and the AUC was 0.74 and the IC50 was 441 nM.
For “KY821 (leukaemia, suspension, top dose 1.28 µM)”, the AUC was 0.852 and the IC50 was 798 nM.
In the case of “KYAE-1 (oesophagus, suspension, top dose 1.28 µM)”, the AUC is reported as 0.769 and the IC50 is reported as 532 nM.
In the case of “KYM-1 (rhabdomyosarcoma, adherent, top dose 1.28 µM)”, the AUC is reported as 0.991 and the IC50 is reported as > 1280 nM.
With “KYSE-50 (oesophagus, adherent, top dose 1.28 µM)” the AUC was 0.864 and the IC50 was 964 nM.
With “KYSE-70 (oesophagus, adherent, top dose 1.28 µM)” the AUC was 0.915 and the IC50 was > 1280 nM.
With “KYSE-140 (oesophagus, adherent, top dose 1.28 µM)” the AUC was 0.665 and the IC50 was 245 nM.
With “KYSE-150 (oesophagus, adherent, top dose 1.28 µM)” the AUC was 0.922 and the IC50 was > 1280 nM.
For “KYSE-180 (oesophagus, adherent, top dose 1.28 µM)”, the AUC was 0.894 and the IC50 was > 1280 nM.
Cell Line “KYSE-220 (oesophagus, adherent, top dose 1.28 µM)” has an AUC of 0.736 and an IC50 of 393 nM.
“KYSE-270 (oesophagus, adherent, top dose 1.28 µM)” was tested, and the AUC was 0.921 and the IC50 was > 1280 nM.
With “KYSE-410 (oesophagus, adherent, top dose 1.28 µM)” the AUC was 0.895 and the IC50 was > 1280 nM.
Work on “KYSE-450 (oesophagus, adherent, top dose 1.28 µM)” yielded an AUC of 0.73 and an IC50 of 345 nM.
With “KYSE-510 (oesophagus, adherent, top dose 1.28 µM)” the AUC was 0.933 and the IC50 was > 1280 nM.
In the case of “KYSE-520 (oesophagus, adherent, top dose 1.28 µM)”, the AUC is reported as 0.853 and the IC50 is reported as > 1280 nM.
“L-363 (myeloma, suspension, top dose 1.28 µM)” gave an AUC of 0.367 and an IC50 of 36.4 nM.
With “L-428 (Hodgkin lymphoma, suspension, top dose 1.28 µM)” the AUC was 0.986 and the IC50 was > 1280 nM.
With “L-540 (Hodgkin lymphoma, suspension, top dose 1.28 µM)” the AUC was 0.869 and the IC50 was 969 nM.
“L-1236 (Hodgkin lymphoma, suspension, top dose 1.28 µM)” showed an AUC of 0.745 and an IC50 of 351 nM.
In the case of “LAMA-84 (chronic myeloid leukaemia, suspension, top dose 1.28 µM)”, the AUC is reported as 0.894 and the IC50 is reported as > 1280 nM.
With “LAN-6 (neuroblastoma, adherent, top dose 1.28 µM)” the AUC was 0.984 and the IC50 was > 1280 nM.
With “LB373-MEL-D (melanoma, adherent, top dose 1.28 µM)” the AUC was 0.888 and the IC50 was > 1280 nM.
“LB771-HNC (head and neck, adherent, top dose 1.28 µM)” was tested, and the AUC was 0.858 and the IC50 was > 1280 nM.
In the case of “LB831-BLC (bladder, adherent, top dose 1.28 µM)”, the AUC is reported as 0.882 and the IC50 is reported as > 1280 nM.
In the case of “LB996-RCC (kidney, adherent, top dose 1.28 µM)”, the AUC is reported as 0.981 and the IC50 is reported as > 1280 nM.
In the case of “LB1047-RCC (kidney, adherent, top dose 1.28 µM)”, the AUC is reported as 0.979 and the IC50 is reported as > 1280 nM.
With “LB2241-RCC (kidney, adherent, top dose 1.28 µM)” the AUC was 0.984 and the IC50 was > 1280 nM.
In the case of “LB2518-MEL (melanoma, adherent, top dose 1.28 µM)”, the AUC is reported as 0.968 and the IC50 is reported as > 1280 nM.
“LC4-1 (lymphoblastic leukaemia, suspension, top dose 1.28 µM)” was tested, and the AUC was 0.4 and the IC50 was 41.1 nM.
“LC-1-sq (lung squamous cell carcinoma, adherent, top dose 1.28 µM)” showed an AUC of 0.743 and an IC50 of 454 nM.
Work on “LC-2-ad (lung adenocarcinoma, adherent, top dose 1.28 µM)” yielded an AUC of 0.687 and an IC50 of 272 nM.
“LCLC-97TM1 (large cell lung carcinoma, adherent, top dose 1.28 µM)” showed an AUC of 0.74 and an IC50 of 419 nM.
With “LCLC-103H (large cell lung carcinoma, adherent, top dose 1.28 µM)” the AUC was 0.71 and the IC50 was 293 nM.
With “LK-2 (lung squamous cell carcinoma, adherent, top dose 1.28 µM)” the AUC was 0.835 and the IC50 was 772 nM.
In the case of “LN-18 (glioma, adherent, top dose 1.28 µM)”, the AUC is reported as 0.993 and the IC50 is reported as > 1280 nM.
For “LN-229 (glioma, adherent, top dose 1.28 µM)”, the AUC was 0.974 and the IC50 was > 1280 nM.
With “LN-405 (glioma, adherent, top dose 1.28 µM)” the AUC was 0.857 and the IC50 was > 1280 nM.
“LNCaP-Clone-FGC (prostate, adherent, top dose 1.28 µM)” was tested, and the AUC was 0.701 and the IC50 was 322 nM.
For “LNZTA3WT4 (glioma, adherent, top dose 1.28 µM)”, the AUC was 0.986 and the IC50 was > 1280 nM.
For “LOU-NH91 (lung squamous cell carcinoma, adherent, top dose 1.28 µM)”, the AUC was 0.968 and the IC50 was > 1280 nM.
In the case of “LOUCY (T-cell lymphoblastic leukaemia, suspension, top dose 10.24 µM)”, the AUC is reported as 0.016 and the IC50 is reported as < 40 nM.
In the case of “LOXIMVI (melanoma, semi-adherent, top dose 1.28 µM)”, the AUC is reported as 0.732 and the IC50 is reported as 335 nM.
For “LP-1 (myeloma, suspension, top dose 1.28 µM)”, the AUC was 0.67 and the IC50 was 216 nM.
With “LS-123 (large intestine, adherent, top dose 1.28 µM)” the AUC was 0.785 and the IC50 was 754 nM.
With “LS-180 (large intestine, adherent, top dose 1.28 µM)” the AUC was 0.927 and the IC50 was > 1280 nM.
With “LS-411N (large intestine, adherent, top dose 10.24 µM)” the AUC was 0.427 and the IC50 was 388 nM.
“LS-513 (large intestine, adherent, top dose 10.24 µM)” was tested, and the AUC was 0.843 and the IC50 was 7690 nM.
For “LS-1034 (large intestine, adherent, top dose 1.28 µM)”, the AUC was 0.971 and the IC50 was > 1280 nM.
Cell Line “LU-65 (large cell lung carcinoma, suspension, top dose 1.28 µM)” has an AUC of 0.782 and an IC50 of 636 nM.
In the case of “LU-99A (large cell lung carcinoma, adherent, top dose 1.28 µM)”, the AUC is reported as 0.951 and the IC50 is reported as > 1280 nM.
Work on “LU-134-A (small cell lung carcinoma, suspension, top dose 1.28 µM)” yielded an AUC of 0.735 and an IC50 of 395 nM.
For “LU-135 (small cell lung carcinoma, suspension, top dose 1.28 µM)”, the AUC was 0.588 and the IC50 was 133 nM.
For “LU-139 (small cell lung carcinoma, suspension, top dose 1.28 µM)”, the AUC was 0.613 and the IC50 was 178 nM.

IC50 is the fitted dose that halves viability relative to control wells, and lower means more sensitive; fits outside the tested doses are given as limits. For AUC the same curve is integrated over the 256-fold range of doses and scaled to a fraction; values near 1 show little effect. Any top dose called inferred was derived from the fitted curves, not read from the paper.
